We go through nine variants from the supplement of paper PMC12217912.

B1: TEV protease; numbered along this chain (parent)
chain: MGESLFKGPRDYNPISSSICHLTNESDGHTTSLYGIGFGPFIITNKHLFRRNNGTLVVQSLHGVFKVKDTTTLQQHLVDGRDMIIIRMPKDFPPFPQKLKFREPQREERICLVTTNFQTKSMSSMVSDTSCTFPSGDGIFWKHWIQTKDGQCGSPLVSTRDGFIVGIHSASNFTNTNNYFTSVPKNFMELLTNQEAQQWVSGWRLNADSVLWGGHKVFMVKPEEPFQPVKEATQL

The variants in the assay derive from B1. The experiment in a line: raw area under fraction-flipped curve 0-4 h after induction (AUC4h, not background-subtracted), DNA-recorder readout of cleavage of the substrate (dimensionless); higher = more cleavage of the substrate by the protease variant. The conditions noted are these: temperature: 34 °C; time window: 0-4 h after rhamnose induction.

This is one part of the list. Sequences were assembled here from the parent chain. Values near 0.05 are background.
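Note: Bxb1 expression induced with 0.2% (w/v) L-rhamnose at OD600 near 0.5, cultures sampled hourly, flipped fraction per protease–substrate barcode pair counted by paired-end Illumina sequencing.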

Consider MGESLFKGPRDYNPISSSICHLTNESDGHTTSLYGIGFGPFIITNKHLFRRNNGTLVVQSLHGVFKVKDTTTLQQHLVDGRDMIIIRMPKDFPPFPQKLKFREPQREERICLVTTNFQTKSMSSMVSDTSCTFPSGDGIFWKMWIQTKDGQCGSPLVSTRDGFIVGIHSASNFTNTNNYFTSVPKNFMELLTNQEAQQWVSGWRLNADSVLWGGHKVFMVKPEEPFQPVKEATQL [H143M], for which the “area with substrate ENLDFQS” value turned out to be 0.0485, the “area with substrate ENLFFQS” value is 0.0706, the “area with substrate ENLKFQS” value was determined as 0.0732 and the “area with substrate ENLNFQS” value worked out at 0.0693. Moreover, the “area with substrate ENLPFQS” value came to 0.0601, the “area with substrate ENLQFQS” value is 0.0665 and the “area with substrate ENLRFQS” value amounted to 0.0637.

MGESLFKGPRDYNPISSSICHLTNESDGHTTSLYGIGFGPFIITNKHLFRRNNGTLVVQSLHGVFKVKDTTTLQQHLVDGRDMIIIRMPKDFPPFPQKLKFREPQREERICLVTTNFQTKSMSSMVSDTSCTFPSGDGIFWVHWIQTKDGQCGSPLVSTRDGFIVGIHSASNFTNTNNYFTSVPKNFMELLTNQEAQQWVSGWRLNADSVLWGGHKVFMVKPEEPFQPVKEATQL [K142V]: the “area with substrate ENLDFQS” value turned out to be 0.0358, the “area with substrate ENLEFQS” value amounted to 0.0556, the “area with substrate ENLFFQS” value was 0.0778 and the “area with substrate ENLGFQS” value stood at 0.0683. Further, the “area with substrate ENLHFQS” value came to 0.0733, the “area with substrate ENLIFQS” value was determined as 0.0747, the “area with substrate ENLMFQS” value stood at 0.0832 and the “area with substrate ENLNFQS” value was 0.0598. The “area with substrate ENLPFQS” value was found to be 0.0618, the “area with substrate ENLQFQS” value is 0.121, the “area with substrate ENLRFQS” value is 0.0684 and the “area with substrate ENLWFQS” value turned out to be 0.112.

For the variant MGESLFKGPRDYNPISSSICHLTNESDGHTTSLYGIGFGPFIITNKHLFRRNNGTLVVQSLHGVFKVKDTTTLQQHLVDGRDMIIIRMPKDFPPFPQKLKFREPQREERICLVTTNFQTKSMSSMVSDTSCTFPSGDGIFWKHWIQTKDGQCGSPLVSTRDGFSVGIHSASNFTNTNNYFTSVPKNFMELLTNQEAQQWVSGWRLNADSVLWGGHKVFMVKPEEPFQPVKEATQL [I164S], the “area with substrate ENLDFQS” value worked out at 0.0679, the “area with substrate ENLFFQS” value is 0.0738, the “area with substrate ENLHFQS” value stood at 0.0551 and the “area with substrate ENLIFQS” value came to 0.051. The “area with substrate ENLKFQS” value came out at 0.0501, the “area with substrate ENLLFQS” value amounted to 0.056, the “area with substrate ENLNFQS” value is 0.0458 and the “area with substrate ENLPFQS” value was 0.051. Besides, the “area with substrate ENLQFQS” value came out at 0.0454, the “area with substrate ENLRFQS” value came to 0.0599, the “area with substrate ENLSFQS” value was 0.0592 and the “area with substrate ENLWFQS” value worked out at 0.052.

As to MGESLFKGPRDYNPISSSICHLTNESDGHTTSLYGIGFGPFIITNKHLFRRNNGTLVVQSLHGVFKVKDTTTLQQHLVDGRDMIIIRMPKDFPPFPQKLKFREPQREERICLVTTNFQTKSMSSMVSDTSCTFPSGDGIFWKHWIQTKDGQCGSPLVSTRDGTIVGIHSASNFTNTNNYFTSVPKNFMELLTNQEAQQWVSGWRLNADSVLWGGHKVFMVKPEEPFQPVKEATQL [F163T], the “area with substrate ENLDFQS” value came to 0.0611, the “area with substrate ENLEFQS” value came to 0.0627, the “area with substrate ENLFFQS” value came out at 0.0814 and the “area with substrate ENLHFQS” value was found to be 0.0797. In addition, the “area with substrate ENLIFQS” value is 0.0906, the “area with substrate ENLLFQS” value came to 0.0675, the “area with substrate ENLMFQS” value was found to be 0.0635 and the “area with substrate ENLNFQS” value amounted to 0.0519. Further, the “area with substrate ENLPFQS” value worked out at 0.0589, the “area with substrate ENLSFQS” value is 0.0791 and the “area with substrate ENLVFQS” value turned out to be 0.0835.

As to MGESLFKGPRDYNPISSSICHLTNESDGHTTSLYGIGFGPFIITNKHLFRRNNGTLVVQSLHGVFKVKDTTTLQQHLVDGRDMIIIRMPKDFPPFPQKLKFREPQREERICLVTTNFQTKSMSSMVSDTSCTFPSGDGIFWKHWIQTKDGQCGSPLVMTRDGFIVGIHSASNFTNTNNYFTSVPKNFMELLTNQEAQQWVSGWRLNADSVLWGGHKVFMVKPEEPFQPVKEATQL [S158M], the “area with substrate ENLDFQS” value is 0.0655, the “area with substrate ENLEFQS” value was found to be 0.0563, the “area with substrate ENLFFQS” value is 0.0599 and the “area with substrate ENLHFQS” value amounted to 0.0542. Also, the “area with substrate ENLIFQS” value turned out to be 0.0543, the “area with substrate ENLLFQS” value worked out at 0.06, the “area with substrate ENLMFQS” value was 0.0715 and the “area with substrate ENLNFQS” value was 0.0516. The “area with substrate ENLPFQS” value amounted to 0.0717, the “area with substrate ENLQFQS” value was 0.0562, the “area with substrate ENLRFQS” value came out at 0.0498 and the “area with substrate ENLSFQS” value was determined as 0.0438. The “area with substrate ENLTFQS” value came out at 0.0645.

Consider MGESLFKGPRDYNPISSSICHLTNESDGHTTSLYGIGFGPFIITNKHLFRRNNGTLVVQSLHGVFKVKDTTTLQQHLVDGRDMIIIRMPKDFPPFPQKLKFREPQREERICLVTTNFQTKSMSSMVSDTSCTFPSGDGIFWKHWIQTKDGQCGSPLVRTRDGFIVGIHSASNFTNTNNYFTSVPKNFMELLTNQEAQQWVSGWRLNADSVLWGGHKVFMVKPEEPFQPVKEATQL [S158R], for which the “area with substrate ENLDFQS” value was found to be 0.0324, the “area with substrate ENLFFQS” value was determined as 0.0555, the “area with substrate ENLHFQS” value turned out to be 0.0544 and the “area with substrate ENLIFQS” value turned out to be 0.0516. Besides, the “area with substrate ENLKFQS” value worked out at 0.0496, the “area with substrate ENLLFQS” value came to 0.0436, the “area with substrate ENLNFQS” value turned out to be 0.0567 and the “area with substrate ENLQFQS” value was determined as 0.0408. The “area with substrate ENLSFQS” value was found to be 0.0762, the “area with substrate ENLVFQS” value was 0.0666 and the “area with substrate ENLWFQS” value came out at 0.0623.

On to MGESLFKGPRDYNPISSSICHLTNESDGHTTSLYGIGFGPFIITNKHLFRRNNGTLVVQSLHGVFKVKDTTTLQQHLVDGRDMIIIRMPKDFPPFPQKLKFREPQREERICLVTTNFQTKSMSSMVSDTSCTFPSGDGIFWKHWIQTKDGQCGSPLVSTRDGFIVGIHSASNQTNTNNYFTSVPKNFMELLTNQEAQQWVSGWRLNADSVLWGGHKVFMVKPEEPFQPVKEATQL [F173Q], for which the “area with substrate ENLDFQS” value stood at 0.0645, the “area with substrate ENLFFQS” value turned out to be 0.0802, the “area with substrate ENLHFQS” value is 0.0589 and the “area with substrate ENLKFQS” value is 0.0766. Besides, the “area with substrate ENLNFQS” value came to 0.067, the “area with substrate ENLPFQS” value was determined as 0.0393, the “area with substrate ENLRFQS” value is 0.0979 and the “area with substrate ENLSFQS” value was determined as 0.0615.

As for MGESLFKGPRDYNPISSSICHLTNESDGHTTSLYGIGFGPFIITNKHLFRRNNGTLVVQSLHGVFKVKDTTTLQQHLVDGRDMIIIRMPKDFPPFPQKLKFREPQREERICLVTTNFQTKSMSSMVSDTSCTFPSGDGIFWKHWIQTKDGQCGSPLVSTRDGFIVGIHSASNFTNTNNVFTSVPKNFMELLTNQEAQQWVSGWRLNADSVLWGGHKVFMVKPEEPFQPVKEATQL [Y179V], the “area with substrate ENLDFQS” value stood at 0.0683, the “area with substrate ENLFFQS” value worked out at 0.0562, the “area with substrate ENLHFQS” value was 0.0666 and the “area with substrate ENLLFQS” value amounted to 0.0574. Also, the “area with substrate ENLRFQS” value is 0.0634, the “area with substrate ENLTFQS” value came to 0.0632 and the “area with substrate ENLWFQS” value was 0.0587.

As for MGESLFKGPRDYNPISSSICHLTNESDGHTTSLYGIGFGPFIITNKHLFRRNNGTLVVQSLHGVFKVKDTTTLQQHLVDGRDMIIIRMPKDFPPFPQKLKFREPQREERICLVTTNFQTKSMSSMVSDTSCTFPSGDGIFWKHWIQTKDGQCGSPLVSTRDGFIVGIHSASNFTNTNNIFTSVPKNFMELLTNQEAQQWVSGWRLNADSVLWGGHKVFMVKPEEPFQPVKEATQL [Y179I], the “area with substrate ENLDFQS” value is 0.0683, the “area with substrate ENLEFQS” value is 0.0665, the “area with substrate ENLGFQS” value was determined as 0.0543 and the “area with substrate ENLHFQS” value was 0.0744. For the same variant, the “area with substrate ENLIFQS” value was found to be 0.0611, the “area with substrate ENLKFQS” value came to 0.0669, the “area with substrate ENLLFQS” value came out at 0.0705 and the “area with substrate ENLNFQS” value turned out to be 0.0744. Besides, the “area with substrate ENLRFQS” value turned out to be 0.0646 and the “area with substrate ENLSFQS” value is 0.0633.
